Assay results: PubChem BioAssay AID720709 (National Center for Advancing Translational Sciences (NCATS), 2013)
The campaign covered roughly 360,000 compounds. About 520 (0.14%) were called active. The inconclusive results got no clear call from the source; some entries with a clear call stand among them for comparison. Calls follow the shape of the dose curve; as a rule, active = well fitted inhibition curve with a large enough effect; inconclusive = small, poorly fitted or top-dose-only effect; inactive = no such curve, though single readings can be large or run the other way. No potency is given beside an inconclusive call; the fits are too rough.

Each compound was assayed against Rap guanine nucleotide exchange factor 3 (Homo sapiens) (UniProt O95398) (assay: qHTS for Antagonist of cAMP-regulated guanine nucleotide exchange factor 3 (EPAC1): primary screen). Settings: EPAC1 GEF assay, Rap1b-BODIPY-GDP exchange fluorescence; activity change, negative = inhibition: at 115 µM (top of the series).
UniProt O95398, sequence (O95398 whole entry, looked up): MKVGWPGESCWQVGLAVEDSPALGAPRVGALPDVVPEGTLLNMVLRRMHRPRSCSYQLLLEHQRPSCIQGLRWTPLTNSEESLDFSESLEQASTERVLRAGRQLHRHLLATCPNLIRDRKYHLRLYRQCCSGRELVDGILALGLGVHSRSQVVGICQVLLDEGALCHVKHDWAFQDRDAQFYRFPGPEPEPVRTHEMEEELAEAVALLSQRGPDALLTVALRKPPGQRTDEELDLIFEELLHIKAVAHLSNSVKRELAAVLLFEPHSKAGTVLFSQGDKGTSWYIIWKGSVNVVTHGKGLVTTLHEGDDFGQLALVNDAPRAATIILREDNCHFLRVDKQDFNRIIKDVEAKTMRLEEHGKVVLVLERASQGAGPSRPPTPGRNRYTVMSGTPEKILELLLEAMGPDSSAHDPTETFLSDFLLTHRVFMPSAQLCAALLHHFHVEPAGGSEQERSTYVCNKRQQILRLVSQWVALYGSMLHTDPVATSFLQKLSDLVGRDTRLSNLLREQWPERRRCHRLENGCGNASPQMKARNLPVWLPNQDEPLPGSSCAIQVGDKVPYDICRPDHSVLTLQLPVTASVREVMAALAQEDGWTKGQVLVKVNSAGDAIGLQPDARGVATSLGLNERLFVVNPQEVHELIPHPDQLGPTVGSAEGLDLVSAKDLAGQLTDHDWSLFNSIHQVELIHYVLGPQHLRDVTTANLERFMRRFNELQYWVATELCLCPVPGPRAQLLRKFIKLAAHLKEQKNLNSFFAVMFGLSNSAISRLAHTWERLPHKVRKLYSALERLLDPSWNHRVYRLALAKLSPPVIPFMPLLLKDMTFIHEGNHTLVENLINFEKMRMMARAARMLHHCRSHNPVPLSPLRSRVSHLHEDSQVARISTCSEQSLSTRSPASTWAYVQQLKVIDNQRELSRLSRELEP
Also: nearly all actives have a fitted effect of over 50% in size.
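For activity change, negative = inhibition in this document: plate controls were vehicle for no effect and positive control for full effect.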
Potency is read from the fitted curve at half-maximal effect; tags tell the direction and shape of the fitted curve.

Row | Structure (SMILES) | Potency | activity change, negative = inhibition
1 | Cc1cc(OCC(=O)Nc2cccc(S(=O)(=O)N3CCCC3)c2)ccc1Cl | inconclusive [inhibitor, full curve, poor fit] | –
2 | Cc1nn(-c2ccccc2)c(C)c1/C=N/NC(=O)CSc1nnc(-c2ccccc2)n1-c1ccc(Cl)cc1 | inconclusive [inhibitor, full curve, poor fit] | –
3 | CC(=O)Oc1c(Sc2ccccc2[N+](=O)[O-])c(C)nn1C(C)(C)C | inconclusive [inhibitor, partial curve] | –
4 | Cc1ccc2nc(-c3ccccn3)c(NC3CCCC3)n2c1 | inconclusive [inhibitor, single point] | –
5 | CCCCNC(=S)Nc1cc(S(=O)(=O)N2CCCCC2)ccc1C | inconclusive [inhibitor, single point] | –
6 | CCc1c(C)c2ccc(OC(C)C(=O)NC(Cc3c[nH]c4ccc(O)cc34)C(=O)O)c(C)c2oc1=O (stereo not drawn) | inconclusive [inhibitor, partial curve] | –
7 | COc1ccc(Cl)cc1NC(=O)CN(C)C(=O)CCSc1ccc(C)cc1 | inconclusive [inhibitor, single point] | –
8 | COc1cc(NC(=O)CCC(=O)N2CCN(S(=O)(=O)c3ccc(C)cc3)CC2)cc(OC)c1 | inconclusive [inhibitor, full curve, poor fit] | –
9 | Cc1ccc(-n2nc(C)c(Sc3ccccc3[N+](=O)[O-])c2N)cc1 | – | inactive: -1.64%
10 | COc1ccc(C(=O)c2[nH]c(N)c(C(=O)NCCc3c[nH]c4ccccc34)c2-c2ccc(Cl)c(F)c2)cc1 | inconclusive [inhibitor, partial curve] | –
11 | O=C(C(O)c1ccccc1)N1CCN(S(=O)(=O)c2ccc(F)c(F)c2)CC1 (stereo not drawn) | – | inactive: 8.44%
12 | COc1ccccc1NS(=O)(=O)c1cc(C(=O)N2CCCCCC2)ccc1C | inconclusive [inhibitor, full curve, poor fit] | –
13 | COc1ccc(O)c(-c2cc(-c3ccccc3[N+](=O)[O-])[nH]n2)c1 | inconclusive [inhibitor, partial curve, poor fit] | –
14 | CC(C)(C)c1ccc(S(=O)(=O)NC(=O)C2(C)CCN2C(=O)Cc2ccc(-c3ccccc3)cc2)cc1 (stereo not drawn) | inconclusive [inhibitor, single point] | –
15 | Cc1ccc(-n2nc(C)c3c(C)c(CCC(=O)NCc4ccco4)c(C)nc32)cc1 | inconclusive [inhibitor, full curve, poor fit] | –
16 | Cc1cc(C)c(CN2CCN(C(=O)Cn3cnc4c(OCc5ccccc5)ncnc43)CC2)c(C)c1 | inconclusive [inhibitor, single point] | –
17 | O=C(CSc1nc2ccccc2c2nc3ccccc3n12)NCc1ccco1 | inconclusive [inhibitor, single point] | –
18 | Cc1cccc(C)c1NC(=S)NCCc1ccccn1 | – | inactive: 0.727%
19 | Cc1cccc(/C=N/NC(=O)c2c(-c3ccccc3)noc2C)c1O | inconclusive [inhibitor, single point] | –
20 | O=C(CN1CCc2ccccc2C1)Nc1ccc(OC(F)(F)F)cc1 | inconclusive [inhibitor, full curve] | –
21 | COc1cc2c(cc1OC)CN(C(=O)C1CCCN(C(=O)c3ccc(Cl)cc3)C1)CC2 (stereo not drawn) | inconclusive [inhibitor, single point] | –

Row | Structure (SMILES) | Potency | activity change, negative = inhibition
22 | Cc1cc(C)c(C(=O)COC(=O)c2cccc(S(=O)(=O)NCc3ccccc3)c2)cc1C | inconclusive [inhibitor, full curve, poor fit] | –
23 | CCOC(=O)CSc1nnc(-c2ccoc2C)n1-c1ccc(OCC)cc1 | – | inactive: -0.79%
24 | O=C(CN(C(=O)CNC(=O)c1cccs1)c1ccc(F)cc1)NC1CCCC1 | inconclusive [inhibitor, single point] | –
25 | CC(C)(C)C1CCC2(CC1)C(C#N)=C(SCC(=O)Nc1ccccc1)NC(=O)C2C#N (stereo not drawn) | inconclusive [inhibitor, partial curve] | –
26 | CCCOc1ccc(N2CC(C(=O)NC3=NCCS3)CC2=O)cc1 (stereo not drawn) | inconclusive [inhibitor, single point] | –
27 | CSc1nnc(C)c(=O)n1COC(=O)COc1ccc(Cl)cc1 | inconclusive [inhibitor, partial curve] | –
28 | COc1cccc(/C=N/NC(=O)c2cc3cc([N+](=O)[O-])ccc3s2)c1O | inconclusive [inhibitor, full curve, poor fit] | –
29 | O=C1C(=C(O)c2ccccc2)C(=O)c2ccccc21 | – | inactive: -3.38%
30 | Cc1ccc(C)n1/N=C1/NC(=O)CS1 | inconclusive [inhibitor, single point] | –
31 | COc1ccc(NC(=S)Nc2cccc(Cl)c2Cl)cc1OC | inconclusive [inhibitor, full curve] | –
32 | CSc1ccccc1NC(=O)CN(C)C(=O)c1ccc(NC(=O)c2cccs2)cc1 | inconclusive [inhibitor, partial curve, poor fit] | –
33 | O=C(O)c1ccc(/C=C2\COc3ccccc3C2=O)cc1 | inconclusive [inhibitor, partial curve] | –
34 | COC(=O)c1c(NC(=O)c2nc3ccccc3s2)sc2c1CC(C)(C)NC2(C)C | inconclusive [inhibitor, single point] | –
35 | CC1(C)CC2(CC(c3ccccc3F)c3ccc(O)c(O)c3O2)NC(=S)N1 (stereo not drawn) | – | inactive: -3.44%
36 | CCCC[C@@H]1C=C(C(=O)O)[C@H](c2ccc(Cl)c(Cl)c2)N1S(=O)(=O)c1ccc(C)cc1 | inconclusive [inhibitor, partial curve] | –
37 | COc1ccc(C(=O)NC2(C(F)(F)F)NC(=O)N(CCCc3ccccc3)C2=O)c(OC)c1OC (stereo not drawn) | inconclusive [inhibitor, partial curve] | –
38 | CN1CCN(C(=O)CCn2c(=O)c3cccn3c3cccnc32)CC1 | – | inconclusive: -14.5% [inhibitor]
39 | O=C(NCc1ccccc1C(F)(F)F)c1cccc2c1C(=O)c1ccc(N3CCOCC3)cc1S2(=O)=O | inconclusive [inhibitor, full curve, poor fit] | –
40 | CN(C)S(=O)(=O)c1cccc(NC(=S)N/N=C/c2ccc(O)c(O)c2O)c1 | inconclusive [inhibitor, partial curve] | –
41 | CC(Cc1ccc(O)c(O)c1)C(C)Cc1ccc(O)c(O)c1 (stereo not drawn) | inconclusive [inhibitor, partial curve] | –
42 | N=C1c2c(cc(=O)n3c2[nH]c2ccccc23)CN1CCN1CCOCC1 | – | inactive: 0.891%

Row | Structure (SMILES) | Potency | activity change, negative = inhibition
43 | CCNc1cccc2c1C(=O)N(C)C2=O | – | inactive: 18.1%
44 | Cc1cccc(C(=O)Nc2sc(-c3ccccc3)cc2C(=O)O)c1 | inconclusive [inhibitor, single point] | –
45 | CCOC(=O)C1(CCOc2ccccc2)CCN(Cc2ccncc2)CC1 | inconclusive [inhibitor, single point] | –
46 | Cc1ccc(NC(=O)CN2CCN(C)CC2)cc1S(=O)(=O)N1CCOCC1 | – | inactive: 2.84%
47 | O=C(COc1ccc(Br)cc1)Nc1ccc(Cc2ccncc2)cc1 | inconclusive [inhibitor, single point] | –
48 | O=C(Oc1c(-c2ccccc2)c(=O)n2c3c(cccc13)CC2)c1ccccc1 | – | inconclusive: -16.5% [inhibitor]
49 | Cc1ccc(-c2cc(C(F)F)nc(S(C)(=O)=O)n2)cc1 | inconclusive [inhibitor, partial curve] | –
50 | CCCCNC(=O)c1c[nH]c2ccc(S(=O)(=O)N3CCOCC3)cc2c1=O | inconclusive [inhibitor, single point] | –
51 | Cc1ccc2nc(-c3ccc(NC(=O)CN4CCN(C(=O)c5ccco5)CC4)cc3)sc2c1 | inconclusive [inhibitor, partial curve] | –
52 | CC1(c2ccccc2)CC(C)(C)N2C(=O)C(=O)c3cccc1c32 (stereo not drawn) | inconclusive [inhibitor, full curve, poor fit] | –
53 | CCOc1cc(Cl)c(CNCCCN2CCOCC2)cc1OC | inconclusive [inhibitor, partial curve] | –
54 | O=C(/C=C/c1cccc([N+](=O)[O-])c1)c1cccs1 | inconclusive [inhibitor, partial curve] | –
55 | COC(=O)c1cc(OC)c(OC)cc1NC(=O)Nc1ccccc1OC | inconclusive [inhibitor, partial curve] | –
56 | CC(=O)O/N=C(\N)c1ccc(-c2csnn2)cc1 | inconclusive [inhibitor, single point] | –
57 | Nc1ccc2c(c1Br)Cc1ccccc1-2 | – | inactive: -24.4%
58 | O=C(O)c1ccc(COc2ccccc2/C=C2\NC(=O)N(Cc3ccc(F)cc3)C2=O)cc1 | inconclusive [inhibitor, partial curve] | –
59 | CN(Cc1cnccn1)C(=O)CC1C(=O)NCCN1CC(c1ccccc1)c1ccccc1 (stereo not drawn) | inconclusive [inhibitor, partial curve, poor fit] | –
60 | N#C/C(=N/Nc1ccc([N+](=O)[O-])cc1)C(=N)N1CCCCC1 | – | inactive: -13.2%
61 | c1cc(-c2cc3nc(NC4CCCCC4)ccn3n2)ccc1OCCN1CCOCC1 | inconclusive [inhibitor, partial curve, poor fit] | –
62 | COC(=O)C1=C(C)N=c2s/c(=C/c3ccoc3)c(=O)n2C1c1ccccc1 (stereo not drawn) | – | inactive: 3.13%
63 | CCOC(=O)c1c(C)oc2c1c(C(c1ccncc1)N1CCOCC1)c(O)c1ccccc12 (stereo not drawn) | – | inactive: -16.2%
